Results from the supplement of paper PMC4967469.
The IC50 comes from the fitted curve, where viability falls to half of the control; a limit (>, <) means that the fit lies beyond the doses tested. AUC sums up the same curve from the lowest dose to the 256-fold higher top dose; it is 1 without any effect and falls as sensitivity rises. For some assays here: An inferred top dose is not printed in the source and was worked back from the curve model. For some assays here: Where an entry number is given, a second screen of the drug exists; the two often differ.

Key:
Assay in all cases: Viability of human cancer cell lines after 72 h of drug (GDSC screen)
AS601245 = compound: N#CC(c1ccnc(NCCc2cccnc2)n1)c1nc2ccccc2s1 [AS601245]; settings: top dose 8 µM; top dose inferred
Procedure: (§1)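 Human cancer cell lines in 384-well plates, medium with 10% serum, drug for 72 h over a 256-fold dose range (nine 2-fold or five 4-fold steps up to the top dose). Adherent lines were fixed and stained with the nucleic acid dye Syto60, suspension lines read with resazurin; signal relative to control wells, capped at 0 and 100%. One two-parameter sigmoid per drug and line, fitted in a mixed model over all curves with the slope shared within a line.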

EX-527 = compound: NC(=O)C1CCCc2c1[nH]c1ccc(Cl)cc21 [EX-527]; settings: top dose 20 µM
Procedure: as §1

AZ628 = compound: Cc1ccc(NC(=O)c2cccc(C(C)(C)C#N)c2)cc1Nc1ccc2ncn(C)c(=O)c2c1 [AZ628]; settings: top dose 4 µM; top dose inferred
Procedure: as §1

AZD6244 = compound: Cn1cnc2c(F)c(Nc3ccc(Br)cc3Cl)c(C(=O)NOCCO)cc21 [AZD6244]; settings: top dose 4 µM; screen: GDSC drug entry 1498; top dose inferred
Procedure: as §1

YM201636 = compound: Nc1ccc(C(=O)Nc2cccc(-c3nc(N4CCOCC4)c4oc5ncccc5c4n3)c2)cn1 [YM201636]; settings: top dose 5.12 µM; top dose inferred
Procedure: as §1

| Cell Line | AUC (AS601245) | IC50 (AS601245) | AUC (EX-527) | IC50 (EX-527) | AUC (AZ628) | IC50 (AZ628) | AUC (AZD6244) | IC50 (AZD6244) | AUC (YM201636) | IC50 (YM201636) |
| --- | --- | --- | --- | --- | --- | --- | --- | --- | --- | --- |
| SK-MM-2 (myeloma, suspension) | 0.911 | > 8 µM | 0.935 | > 20 µM | 0.982 | > 4 µM | 0.986 | > 4 µM | 0.814 | 2.94 µM |
| SK-N-DZ (neuroblastoma, adherent) | 0.906 | > 8 µM | 0.981 | > 20 µM | 0.979 | > 4 µM | 0.963 | > 4 µM | 0.965 | > 5.12 µM |
| SK-N-FI (neuroblastoma, adherent) | 0.983 | > 8 µM | 0.989 | > 20 µM | 0.902 | > 4 µM | 0.915 | > 4 µM | 0.986 | > 5.12 µM |
| SK-PN-DW (Ewing sarcoma, adherent) | 0.902 | > 8 µM | 0.983 | > 20 µM | 0.936 | > 4 µM | 0.984 | > 4 µM | 0.826 | 3.27 µM |
| SK-UT-1 (soft tissue, adherent) | 0.823 | 4.17 µM | 0.988 | > 20 µM | 0.891 | 3.96 µM | 0.902 | > 4 µM | 0.881 | 4.56 µM |
| SLVL (B-cell lymphoma, suspension) | 0.802 | 4.2 µM | 0.928 | > 20 µM | 0.917 | > 4 µM | 0.928 | > 4 µM | 0.853 | 4.39 µM |
| SNB75 (glioma, adherent) | 0.763 | 4.25 µM | 0.971 | > 20 µM | 0.956 | > 4 µM | 0.95 | > 4 µM | 0.979 | > 5.12 µM |
| SNU-C1 (large intestine, suspension) | 0.98 | > 8 µM | 0.978 | > 20 µM | 0.957 | > 4 µM | 0.431 | 0.148 µM | 0.954 | > 5.12 µM |
| SR (lymphoid neoplasm, suspension) | 0.714 | 1.87 µM | 0.948 | > 20 µM | 0.895 | > 4 µM | 0.913 | > 4 µM | 0.826 | 2.7 µM |
| ST486 (Burkitt lymphoma, suspension) | 0.713 | 1.83 µM | 0.971 | > 20 µM | 0.749 | 1.17 µM | 0.988 | > 4 µM | 0.607 | 0.608 µM |
| SU-DHL-4 (B-cell lymphoma, suspension) | 0.883 | 4.51 µM | 0.997 | > 20 µM | 0.997 | > 4 µM | 0.996 | > 4 µM | 0.856 | 2.43 µM |
| SU-DHL-6 (B-cell lymphoma, suspension) | 0.95 | > 8 µM | 0.995 | > 20 µM | 0.886 | 2.47 µM | 0.995 | > 4 µM | 0.706 | 1.02 µM |
| SU-DHL-8 (B-cell lymphoma, suspension) | 0.88 | 7.31 µM | 0.987 | > 20 µM | 0.74 | 1.15 µM | 0.972 | > 4 µM | 0.784 | 2.02 µM |
| SU-DHL-16 (B-cell lymphoma, suspension) | 0.878 | 4.48 µM | 0.996 | > 20 µM | 0.975 | > 4 µM | 0.986 | > 4 µM | 0.699 | 0.971 µM |
| SUP-HD1 (Hodgkin lymphoma, suspension) | 0.852 | 5.75 µM | 0.988 | > 20 µM | 0.856 | 2.98 µM | 0.97 | > 4 µM | 0.756 | 1.68 µM |
| SUP-M2 (anaplastic large cell lymphoma, suspension) | 0.906 | 6.25 µM | 0.971 | > 20 µM | 0.994 | > 4 µM | 0.742 | 0.997 µM | 0.908 | 4.07 µM |
| SUP-T1 (T-cell lymphoblastic leukaemia, suspension) | 0.852 | 5.34 µM | 0.977 | > 20 µM | 0.789 | 1.59 µM | 0.981 | > 4 µM | 0.881 | 4.51 µM |
| SW684 (fibrosarcoma, adherent) | 0.981 | > 8 µM | 0.979 | > 20 µM | 0.982 | > 4 µM | 0.92 | > 4 µM | 0.983 | > 5.12 µM |
| SW872 (soft tissue, adherent) | 0.712 | 1.85 µM | 0.988 | > 20 µM | 0.371 | 0.115 µM | 0.667 | 0.695 µM | 0.943 | > 5.12 µM |
| SW954 (urogenital system, adherent) | 0.923 | > 8 µM | 0.977 | > 20 µM | 0.937 | > 4 µM | 0.779 | 1.65 µM | 0.831 | 3.31 µM |
| SW962 (urogenital system, adherent) | 0.85 | > 8 µM | 0.977 | > 20 µM | 0.892 | > 4 µM | 0.698 | 1.04 µM | 0.817 | 3.79 µM |

| Cell Line | AUC (AS601245) | IC50 (AS601245) | AUC (EX-527) | IC50 (EX-527) | AUC (AZ628) | IC50 (AZ628) | AUC (AZD6244) | IC50 (AZD6244) | AUC (YM201636) | IC50 (YM201636) |
| --- | --- | --- | --- | --- | --- | --- | --- | --- | --- | --- |
| TC-71 (Ewing sarcoma, adherent) | 0.992 | > 8 µM | 0.988 | > 20 µM | 0.992 | > 4 µM | 0.982 | > 4 µM | 0.702 | 1.06 µM |
| TE-1 (oesophagus, adherent) | 0.934 | > 8 µM | 0.976 | > 20 µM | 0.886 | > 4 µM | 0.806 | 2.71 µM | 0.974 | > 5.12 µM |
| TE-5 (oesophagus, adherent) | 0.864 | > 8 µM | 0.983 | > 20 µM | 0.788 | 2.06 µM | 0.798 | 2.23 µM | 0.959 | > 5.12 µM |
| TE-6 (oesophagus, adherent) | 0.889 | > 8 µM | 0.984 | > 20 µM | 0.975 | > 4 µM | 0.973 | > 4 µM | 0.904 | > 5.12 µM |
| TE-8 (oesophagus, adherent) | 0.781 | 3.57 µM | 0.985 | > 20 µM | 0.919 | > 4 µM | 0.777 | 1.72 µM | 0.927 | > 5.12 µM |
| TE-9 (oesophagus, adherent) | 0.834 | 5.5 µM | 0.981 | > 20 µM | 0.881 | > 4 µM | 0.931 | > 4 µM | 0.968 | > 5.12 µM |
| TE-10 (oesophagus, adherent) | 0.703 | 1.84 µM | 0.983 | > 20 µM | 0.975 | > 4 µM | 0.763 | 1.41 µM | 0.916 | > 5.12 µM |
| TE-12 (oesophagus, suspension) | 0.688 | 1.89 µM | 0.979 | > 20 µM | 0.721 | 1.23 µM | 0.907 | > 4 µM | 0.891 | > 5.12 µM |
| TE-15 (oesophagus, suspension) | 0.615 | 1.08 µM | 0.984 | > 20 µM | 0.976 | > 4 µM | 0.896 | > 4 µM | 0.894 | > 5.12 µM |
| TGBC1TKB (biliary tract, adherent) | 0.91 | > 8 µM | 0.987 | > 20 µM | 0.988 | > 4 µM | 0.944 | > 4 µM | 0.962 | > 5.12 µM |
| TGW (neuroblastoma, adherent) | 0.947 | > 8 µM | 0.976 | > 20 µM | 0.984 | > 4 µM | 0.989 | > 4 µM | 0.88 | 4.04 µM |
| TK10 (kidney, adherent) | 0.79 | 4.4 µM | 0.973 | > 20 µM | 0.869 | > 4 µM | 0.672 | 0.838 µM | 0.975 | > 5.12 µM |
| TK (B-cell lymphoma, suspension) | 0.933 | > 8 µM | 0.99 | > 20 µM | 0.911 | > 4 µM | 0.985 | > 4 µM | 0.846 | 3.26 µM |
| TUR (B-cell lymphoma, suspension) | 0.861 | 5.95 µM | 0.985 | > 20 µM | 0.974 | > 4 µM | 0.954 | > 4 µM | 0.805 | 2.35 µM |
| U-87-MG (glioma, adherent) | 0.935 | > 8 µM | 0.984 | > 20 µM | 0.965 | > 4 µM | 0.841 | 3.5 µM | 0.863 | > 5.12 µM |
| U-698-M (B-cell leukaemia, suspension) | 0.758 | 2.78 µM | 0.983 | > 20 µM | 0.932 | > 4 µM | 0.957 | > 4 µM | 0.758 | 1.77 µM |
| UACC-257 (melanoma, adherent) | 0.956 | > 8 µM | 0.978 | > 20 µM | 0.308 | 0.0629 µM | 0.399 | 0.123 µM | 0.836 | 4.63 µM |
| VA-ES-BJ (soft tissue, adherent) | 0.844 | 6.2 µM | 0.985 | > 20 µM | 0.969 | > 4 µM | 0.978 | > 4 µM | 0.956 | > 5.12 µM |
| VAL (B-cell lymphoma, suspension) | 0.826 | 4.87 µM | 0.968 | > 20 µM | 0.722 | 1.07 µM | 0.985 | > 4 µM | 0.809 | 2.68 µM |
| VCaP (prostate, adherent) | 0.885 | > 8 µM | 0.902 | > 20 µM | 0.969 | > 4 µM | 0.983 | > 4 µM | 0.833 | 3.49 µM |
